The values below come from publication PMC4336329 (PLoS ONE, 2015).

Out of some 310,000 compounds screened, about 2,200 (0.71%) showed an effect of 50% or more. Effects have a minus sign here. The list shows a part of the results.

The target in the assay is human ether-à-go-go-related gene (hERG) potassium channel (human, UniProt Q12809). Briefly: primary screen, population patch clamp on CHO cells stably expressing hERG.
Chain of human ether-à-go-go-related gene (hERG) potassium channel (Q12809 whole entry, looked up): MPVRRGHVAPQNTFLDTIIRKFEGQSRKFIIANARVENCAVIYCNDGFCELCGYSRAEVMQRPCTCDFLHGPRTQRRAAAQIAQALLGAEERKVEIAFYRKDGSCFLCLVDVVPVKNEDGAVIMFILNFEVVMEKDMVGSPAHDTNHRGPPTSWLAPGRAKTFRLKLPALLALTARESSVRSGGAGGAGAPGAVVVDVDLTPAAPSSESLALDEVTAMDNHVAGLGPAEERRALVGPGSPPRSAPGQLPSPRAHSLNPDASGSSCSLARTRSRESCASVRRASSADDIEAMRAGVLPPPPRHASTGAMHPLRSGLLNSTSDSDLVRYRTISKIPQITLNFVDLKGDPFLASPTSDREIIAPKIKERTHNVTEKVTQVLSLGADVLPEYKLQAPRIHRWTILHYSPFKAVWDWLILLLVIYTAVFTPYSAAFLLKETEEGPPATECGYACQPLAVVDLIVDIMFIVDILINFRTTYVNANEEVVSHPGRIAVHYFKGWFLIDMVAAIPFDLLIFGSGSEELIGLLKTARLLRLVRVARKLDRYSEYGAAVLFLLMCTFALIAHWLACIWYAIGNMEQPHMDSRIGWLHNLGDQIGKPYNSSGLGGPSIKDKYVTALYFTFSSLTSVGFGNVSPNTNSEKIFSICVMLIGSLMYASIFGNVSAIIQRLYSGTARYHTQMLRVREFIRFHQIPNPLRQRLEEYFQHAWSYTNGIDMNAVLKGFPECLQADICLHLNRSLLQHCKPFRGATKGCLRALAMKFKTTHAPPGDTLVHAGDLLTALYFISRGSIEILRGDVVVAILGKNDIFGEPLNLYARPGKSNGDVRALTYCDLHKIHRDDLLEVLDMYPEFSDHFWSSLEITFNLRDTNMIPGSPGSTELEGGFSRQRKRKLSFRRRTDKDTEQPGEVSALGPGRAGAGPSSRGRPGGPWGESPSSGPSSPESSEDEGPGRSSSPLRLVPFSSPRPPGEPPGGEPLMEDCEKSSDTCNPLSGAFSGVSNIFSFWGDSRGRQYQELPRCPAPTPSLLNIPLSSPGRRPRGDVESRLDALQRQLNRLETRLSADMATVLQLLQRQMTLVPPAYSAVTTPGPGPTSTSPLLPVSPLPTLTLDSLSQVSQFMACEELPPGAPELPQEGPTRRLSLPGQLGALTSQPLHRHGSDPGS
Consider `CCn1c(SCC(=O)N/N=C(/C)c2ccncc2)nc2ccccc21`, for which the “hERG current change (%, negative = inhibition) at 1uM” value is recorded as 8.73%.

Take `CC(=O)OCCCNc1cc(SCc2ccco2)c2nonc2c1[N+](=O)[O-]`: the “hERG current change (%, negative = inhibition) at 1uM” value is listed as -4.86%. On to `CC(C)C[C@H]1CN=C(Nc2ccccc2)N1CCc1ccc(F)cc1`, for which the “hERG current change (%, negative = inhibition) at 1uM” value is on record as -36.2%. `COc1cc(/C=C/C(=O)O)ccc1S(=O)(=O)N1CCCc2ccccc21`: the “hERG current change (%, negative = inhibition) at 1uM” value turned out to be 12.4%. In the case of `COc1ccc(-n2nc3c(c2NC(=O)CC(C)C)CS(=O)C3)cc1` (centres unmarked), the “hERG current change (%, negative = inhibition) at 1uM” value amounted to 15.1%. With `CC1(C)c2ccccc2-c2nc3ccccc3cc2C1O` (centres unmarked), the “hERG current change (%, negative = inhibition) at 1uM” value was determined as 3.87%. To `Cc1ccc(OC(C)C(=O)Nc2ccc(S(=O)(=O)Nc3cc(C)on3)cc2)cc1` (centres unmarked) belongs -0.674%; to `Cc1cc(OCC(=O)NNC(=O)c2cccnc2)cc(C)c1Cl`, 8.86%. Then `Cc1ccc(/C=N/NC(=O)c2nnn(-c3nonc3N)c2C)o1`, with 12.7%; and `CC(C)(C)Nc1nc2cc([N+](=O)[O-])ccc2o1`, with 26.5%; and `NNC(=O)c1sccc1OCc1cccc(C(F)(F)F)c1`, with 9.85%. Then `CCCCn1c(N)c(N(CCOC)C(=O)CSc2nc3ccc(C)cc3[nH]2)c(=O)[nH]c1=O`, with 6.55%; and `Cc1nsc2nc3c(F)c(F)c(F)c(F)c3cc12`, with 16.8%.

On to `CCOC(=O)C1=C(c2ccccc2)N=c2s/c(=C\c3cc(OC)c(OC)c(OC)c3)c(=O)n2C1c1cccs1` (centres unmarked), for which the “hERG current change (%, negative = inhibition) at 1uM” value worked out at 7.89%.

As for `O=C(CSc1nc(NS(=O)(=O)c2ccccc2)cc(=O)[nH]1)Nc1ccc(F)cc1`, the “hERG current change (%, negative = inhibition) at 1uM” value came out at 11%.

In the case of `Cc1cccc(NC(=O)CC(C)(C)C)c1`, the “hERG current change (%, negative = inhibition) at 1uM” value was determined as 9.02%. Then `O=C(Cn1cnc2c(cnn2-c2ccc(F)cc2)c1=O)N1CCCc2ccccc21`, with -10.5%. With `CC1(C(=O)N2CCC(CO)(Cc3cccc(C(F)(F)F)c3)CC2)CC1`, the “hERG current change (%, negative = inhibition) at 1uM” value turned out to be 8.78%. Then `CCCCOc1ccc(C(=O)N/C(=C\c2ccc(OC)cc2)C(=O)OCc2ccco2)cc1`, with 6.49%; and `CN(CCc1ccccn1)C(=O)c1cc(COc2ccc(F)cc2F)on1`, with 7.55%; and `CCN1C(=O)N(CC)C(=O)C2(Cc3ccccc3N3CCN(c4ccccc4)CC32)C1=O` (centres unmarked), with 14.4%. To `O=C1c2ccccc2NC(c2cnc3ccccc3n2)N1O` (centres unmarked) belongs -0.0078%. Take `CCc1cccc(NC(=O)C2CCCN2S(=O)(=O)c2ccc3c(c2)CC(C)N3C(C)=O)c1` (centres unmarked): the “hERG current change (%, negative = inhibition) at 1uM” value was -25.5%. `Cc1c(/C(O)=C2\C(=O)C(=O)N(CCN(C)C)C2c2cccs2)cnn1-c1ccccc1` (centres unmarked): the “hERG current change (%, negative = inhibition) at 1uM” value is on record as 1.49%. To `O=C(Nc1sc2c(c1C(=O)O)CCC2)c1ccccc1` belongs 3.81%; to `O=[N+]([O-])c1ccc(CN2CCC(Cc3ccccc3)CC2)cc1`, -9.62%; to `COc1ccccc1Nc1ncnc2ccccc12`, -0.651%. In the case of `CCN(C(=O)Cn1c(=O)oc2ccccc21)c1ccc(C)c(C)c1`, the “hERG current change (%, negative = inhibition) at 1uM” value is given as 4.51%. Then `COc1ccccc1-c1sc2cc3c(cc2c1C#CC1(O)CCCCC1)OCO3`, with 14.4%.

Take `COCC(=O)N1CCC(Oc2ccc(C(=O)NC(C)c3csc(C)n3)cc2)CC1` (centres unmarked): the “hERG current change (%, negative = inhibition) at 1uM” value is recorded as 15.2%.

Consider `Cn1c(=O)oc2cc(S(=O)(=O)N3CCCc4ccccc43)ccc21`, for which the “hERG current change (%, negative = inhibition) at 1uM” value is reported as 3.12%. To `O=C(NCc1nc2ccccc2[nH]1)c1cccc(S(=O)(=O)N2CCCC2)c1` belongs 12.4%. To `CC1=CC(c2ccccc2)n2nnnc2N1` (centres unmarked) belongs 12.9%. For the molecule `Cc1cc(Cl)c(S(=O)(=O)NC(C(=O)O)c2ccccc2)cc1OCC(N)=O` (centres unmarked), the “hERG current change (%, negative = inhibition) at 1uM” value is on record as 6.08%.

For the molecule `CC(/C=N\NC(=O)CN1CCN(S(=O)(=O)c2ccc(C)cc2)CC1)=C\c1ccccc1`, the “hERG current change (%, negative = inhibition) at 1uM” value is reported as 1.26%. In the case of `CC(C)OC(=O)Cn1nc(C(F)(F)F)c2c1CCCC2`, the “hERG current change (%, negative = inhibition) at 1uM” value was determined as 17.4%. On to `COc1ccc(C)cc1NC(=O)CNc1ccccc1CN(C)C1CCCCC1`, for which the “hERG current change (%, negative = inhibition) at 1uM” value was 4.68%.

Take `COc1ccc(-n2c(Cc3cccn3C)nnc2SCC(=O)Nc2ccc(C)cc2C)cc1`: the “hERG current change (%, negative = inhibition) at 1uM” value is given as -3.57%. Regarding `CC(=O)c1c(C)cc(C)c(CSc2ccccn2)c1C`, the “hERG current change (%, negative = inhibition) at 1uM” value is reported as 22.9%. To `Cc1ccc(-c2nnc(N(C)C(=O)c3ccccn3)s2)cn1` belongs 12.5%; to `Cc1ccc(NC(=O)CCC(=O)NNS(=O)(=O)c2ccc(Cl)cc2)cc1C`, 3.88%.

Turning to `Cl.Clc1cccc(CSC2=NCCCN2)c1`, the “hERG current change (%, negative = inhibition) at 1uM” value is recorded as 2.18%. Regarding `CN(C(=O)CSc1nc(-c2ccccc2)cs1)C1CCS(=O)(=O)C1` (centres unmarked), the “hERG current change (%, negative = inhibition) at 1uM” value was -6.57%. Take `CCCNC(=O)C1CC(c2ccc(C(F)(F)F)cc2)=NO1` (centres unmarked): the “hERG current change (%, negative = inhibition) at 1uM” value is -0.587%.
